We go through 60 molecules from PubChem BioAssay AID1508624 (National Center for Advancing Translational Sciences (NCATS), 2021).

About 120 (0.25%) of roughly 48,000 compounds were called active. About 4% were inconclusive and are not listed. The call rests on the fitted dose curve; in most records, active means well fitted activation curve with a large enough effect; inconclusive means small, poorly fitted or top-dose-only effect, or another doubt; inactive means no such curve, though single readings can be large or run the other way. The list shows a part of the results.

The assay can be described thus: Primary qHTS for Identification of Small Molecule Activators of Huntingtin-Antisense Promoter Activity. Further: nearly all actives have a fitted effect of over 55% in size. The note with it: HEK293 HTT-AS promoter firefly luciferase reporter, 24 h; series mostly up to 57.5 µM; activity change, positive = activation: at the top concentration. In short, it runs like this: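 HEK293 Fluc reporter, 2,500 cells/well, 24 h pre-culture; cpds up to 57.5 uM final, 24 h 37 degrees C; Dual-Glo, 10 min RT; normalized vehicle = 0%, zero RLU = -100%.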
Consider `CCC1=Nc2cc(C(=O)NCC(C)c3ccccc3)ccc2Sc2ccc(C)cc21` (stereo not given), for which the “activity change, positive = activation” value was inactive: -22.7%.
In the case of `Cc1ccc(CCNC(=O)c2cn(C)c3ccc(S(=O)(=O)N(C)C4CCCCC4)cc3c2=O)cc1` it was inactive: 2.28% [at 11.5 µM, percent change from vehicle, -100% = no light]; in that of `COc1ccc(CNS(=O)(=O)c2cc3c(cc2C)N(C)CCO3)cc1`, inactive: -34.9%.
`Cc1ccc(Cn2cc(C(=O)c3ccc(F)cc3)c(=O)c3cc4c(cc32)OCO4)cc1`: the “activity change, positive = activation” value is inactive: -27.3%.
In the case of `CCOC(=O)Cn1c(=O)n(CC2CCCO2)c2nc(-c3ccccc3F)nc(C(N)=O)c21` (stereo not given) it was inactive: -6.1%.
In the case of `CN(C)CCCN1c2ccccc2Sc2ccc(C(F)(F)F)cc21`, the “activity change, positive = activation” value is inactive: -23%.
`Cc1cccc(NC(=O)c2cc(S(=O)(=O)NCc3ccc4c(c3)OCO4)ccc2F)c1C`: the “activity change, positive = activation” value is inactive: -22.5%.
In the case of `CCOC(=O)Cc1ccc(NC(=O)Nc2ccccc2OCc2cc(=O)n3ccccc3n2)cc1` it was inactive: 8.44%.
Then `O=C(NCc1ccc2c(c1)CCN2C(=O)c1ccccc1)Nc1cc(F)ccc1F`, with inactive: -43.4%; and `COc1ccccc1-n1c(=O)c2c3c(sc2n(C)c1=O)CN(C(C)=O)CC3`, with inactive: -9.42%.
For `CCn1nnc2cc(C(=O)Nc3cccc(Cl)c3C)ccc21`, the “activity change, positive = activation” value is inactive: 9.31%.
In the case of `COc1ccc(Cn2c(CNS(=O)(=O)c3ccc(C)c(C)c3)nc3cccnc32)cc1`, the “activity change, positive = activation” value is inactive: -16.7%.
Regarding `COc1ccc(-c2nc3scc(CCNS(=O)(=O)c4ccccc4F)n3n2)cc1`, the “activity change, positive = activation” value is inactive: -22.4%.
In the case of `CC(Oc1ccc(F)cc1)C(=O)Nc1nc(-c2ccc(F)cc2)ns1` (stereo not given) it was inactive: -38.7%; in that of `COc1ccc(C)cc1S(=O)(=O)NCC(c1cccs1)S(=O)(=O)c1ccc(C)cc1` (stereo not given), inactive: -13.9%.
For the molecule `COc1ccc(-c2noc(-c3ccc(N4CCCC4)c([N+](=O)[O-])c3)n2)cc1`, the “activity change, positive = activation” value is inactive: -16.4%.
In the case of `COc1ccc(NC(=O)N2CCc3c(sc4c3CCCC4)C2c2ccccc2OC)cc1` (stereo not given) it was inactive: -11.8%; in that of `CC(C)CC(=O)Nc1ccc2nc(SCC(=O)N3CCCC3)sc2c1`, inactive: -2.05%; in that of `CCOc1ccc(N(CC(=O)Nc2cc(C)ccc2C)S(=O)(=O)c2c(C)[nH]c(=O)[nH]c2=O)cc1`, inactive: -7.13%.
As to `Cc1ccc(NC(=O)CCn2nc(C)c(S(=O)(=O)N3CCCCC3)c2C)cc1Cl`, the “activity change, positive = activation” value was inactive: -13.3%.
With `CCOC(=O)c1c(C)sc(-c2c(-c3cc(C)ccc3C)[nH]c3c2c(=O)n(C)c(=O)n3C)c1O`, the “activity change, positive = activation” value was inactive: -18.8%.
Then `CCN(c1ccc(C)cc1)S(=O)(=O)c1nnc(NC(=O)C2CCCCC2)s1`, with inactive: -7.98%; and `Cc1ccc(C)c(CN2C(=O)c3ccccc3S(=O)(=O)c3ccc(C(=O)N4CCc5ccccc54)cc32)c1`, with inactive: -21.3%.
On to `CCCNC(=O)CSc1nc2ccccc2nc1Cc1ccc(Cl)cc1`, for which the “activity change, positive = activation” value was inactive: -5.94%.
Then `CCCCCCCCCCCCCCCCCCOCC(O)CO` (stereo not given), with inactive: 2.6%; and `Cc1ccc(NC(=O)CSc2cn(CC(=O)N3CCCCCC3)c3ccccc23)cc1`, with inactive: 0%.
In the case of `CN1Cc2cc(C(=O)N3CCC(C4CCNCC4)CC3)ccc2NC(CC(=O)O)C1=O` (stereo not given) it was inactive: -3.42%.
For the molecule `Cc1cccc(N2CCN(C(=O)c3cnn(-c4cccc(Cl)c4C)c3C3CCNCC3)CC2)c1C`, the “activity change, positive = activation” value is inactive: -18%.
Then `Cc1ccc(-c2noc(CSc3nnc(Cc4ccccc4)n3-c3cccc(C)c3)n2)cc1`, with inactive: -37.1%; and `O=C(NCC(c1cccnc1)N1CCc2ccccc2C1)C(=O)Nc1ccc(Cl)cc1` (stereo not given), with inactive: -31.8%.
In the case of `Cc1cc(C)c(NC(=O)Cn2c(=O)n(Cc3ccco3)c(=O)c3ccc(C(=O)NC4CCCC4)cc32)c(C)c1` it was inactive: -6.75%; in that of `Cn1nnc2c(NCCc3ccccc3)ncnc21`, inactive: 20.7%.
Consider `CC(C)c1ccc(NC(=O)c2cccc3c2C(=O)N(C2CCCCC2)C3)cc1`, for which the “activity change, positive = activation” value is inactive: -6.14%.
For `CCCc1nc2ccccc2n2c(-c3ccc(C)cc3)c3c(=O)n(C)c(=O)n(C)c3c12`, the “activity change, positive = activation” value is inactive: 0.718%.
Then `Cc1ccc2c(c1)N(CC(=O)NCc1ccccc1Br)C(=O)c1cccnc1O2`, with inactive: -17.9%.
In the case of `CC(=O)c1cccc(NC(=O)c2c(N3CCCC3=O)c3cc(F)ccc3n2C)c1` it was inactive: -18.1%; in that of `CCOCCCNC(=O)C(c1ccc(C)cc1)N(Cc1cccs1)C(=O)c1ccc(NC(C)=O)cc1` (stereo not given), inactive: -12.9%.
Consider `C[N+](C)(CCOc1ccccc1)Cc1cccs1`, for which the “activity change, positive = activation” value was inactive: -7.49%.
In the case of `C[N+]1(C)CCC(OC(=O)C(O)(c2ccccc2)C2CCCC2)C1` (stereo not given) it was inactive: -0.607%; in that of `CCSc1ncc(Cl)c(C(=O)Nc2c(C(=O)c3ccc(C)c(F)c3)oc3ccccc23)n1`, inactive: 12.8%; in that of `COc1ccccc1NC(=O)c1c(NC(=O)c2ccco2)sc2c1CCC(C(C)(C)C)C2` (stereo not given), inactive: -4.38%.
In the case of `CCN(CC)C(=O)c1sc2c(c1C)c(=O)n(Cc1ccccc1)c(=O)n2Cc1ccc(Cl)cc1` it was inactive: -36.1%.
With `O=C(CCS(=O)(=O)c1nc(-c2ccc3c(c2)OCO3)cc(C(F)(F)F)n1)Nc1ccccc1F`, the “activity change, positive = activation” value is inactive: 16.3%.
Regarding `CCN(C(=O)CCn1cnc2onc(-c3ccc(F)cc3)c2c1=O)c1ccc(OC)cc1`, the “activity change, positive = activation” value was inactive: -28%.
Turning to `COc1ccc(Nc2nc3ccccc3c3nnc(C)n23)cc1Cl`, the “activity change, positive = activation” value is inactive: -2.54%.
As for `CCc1cccc(-n2nnc(-c3nc(-c4ccccc4Cl)no3)c2N)c1`, the “activity change, positive = activation” value is inactive: -1.95%.
With `CCCC(=O)Nc1nnc2n1CCS2`, the “activity change, positive = activation” value was inactive: -8.61%.
In the case of `O=C(CSc1nc2c(c(=O)[nH]1)CN(Cc1ccc3c(c1)OCO3)CC2)Nc1cccc(Cl)c1` it was inactive: 0%; in that of `Cn1nnc2c(NCc3ccccc3Cl)ncnc21`, inactive: 12.1%; in that of `CCOC(=O)c1noc2ncnc(N3CCC(C)CC3)c12`, inactive: 1.96%.
Consider `CCOc1ccc(Oc2nc(NC)nc(N3CCOCC3)n2)nn1`, for which the “activity change, positive = activation” value was inactive: -7.61%.
For the molecule `Cc1cccc(Cn2cc3c(=O)n(CC(=O)Nc4ccc(C)c(F)c4)nc-3c3cc(F)ccc32)c1`, the “activity change, positive = activation” value is inactive: -9.26%.
In the case of `COc1ccc(CC(=O)NCc2nc3cccnc3n2Cc2ccc(C)cc2)cc1OC` it was inactive: -20.5%; in that of `COc1ccc(N2CC(NC(=O)c3cc4ccccc4o3)CC2=O)cc1OC` (stereo not given), inactive: -27.6%; in that of `CCc1cccc(NS(=O)(=O)c2c(C)nc3sc(CC)nn3c2=O)c1`, inactive: -21.3%.
`COc1cc(/C=C(\C#N)C(=O)Nc2ccc(C)cc2)ccc1OCc1cc(=O)n2nc(C)sc2n1`: the “activity change, positive = activation” value was inactive: -11.8%.
On to `Cc1ccc(NC(=O)Cn2c(=O)n(CCc3ccccc3)c(=O)c3c4c(sc32)CCCC4)c(C)c1`, for which the “activity change, positive = activation” value was inactive: -8.12%.
With `O=c1oc2ccc(Br)cc2cc1-c1csc(-c2ccccc2)n1`, the “activity change, positive = activation” value was inactive: 11.1%.
In the case of `CCOC(=O)c1cc(NC(=O)c2ccc(C)cc2)c(=O)n2c1oc1ccc(Cl)cc12` it was inactive: -11.8%; in that of `Cc1ccc(N2CC(NC(=O)c3ccc(S(=O)(=O)N4CCCCC4)cc3)CC2=O)cc1` (stereo not given), inactive: -22.2%.
